PMC6919601, “Identification of Plasmodium dipeptidyl aminopeptidase allosteric inhibitors by high throughput screening” (PLoS ONE, 2019)
The campaign covered roughly 110,000 compounds. About 230 (0.21%) showed an effect of 50% or more. This is one part of the list.

molecular target: DPAP1 (Plasmodium falciparum, UniProt Q8IIJ9); assay: primary screen, percent inhibition; read by cleavage of a fluorogenic dipeptide substrate; higher = more effect of the substance; parameters: species or system P. falciparum D10 trophozoite lysates; single well
Sequence (Q8IIJ9 whole entry, looked up): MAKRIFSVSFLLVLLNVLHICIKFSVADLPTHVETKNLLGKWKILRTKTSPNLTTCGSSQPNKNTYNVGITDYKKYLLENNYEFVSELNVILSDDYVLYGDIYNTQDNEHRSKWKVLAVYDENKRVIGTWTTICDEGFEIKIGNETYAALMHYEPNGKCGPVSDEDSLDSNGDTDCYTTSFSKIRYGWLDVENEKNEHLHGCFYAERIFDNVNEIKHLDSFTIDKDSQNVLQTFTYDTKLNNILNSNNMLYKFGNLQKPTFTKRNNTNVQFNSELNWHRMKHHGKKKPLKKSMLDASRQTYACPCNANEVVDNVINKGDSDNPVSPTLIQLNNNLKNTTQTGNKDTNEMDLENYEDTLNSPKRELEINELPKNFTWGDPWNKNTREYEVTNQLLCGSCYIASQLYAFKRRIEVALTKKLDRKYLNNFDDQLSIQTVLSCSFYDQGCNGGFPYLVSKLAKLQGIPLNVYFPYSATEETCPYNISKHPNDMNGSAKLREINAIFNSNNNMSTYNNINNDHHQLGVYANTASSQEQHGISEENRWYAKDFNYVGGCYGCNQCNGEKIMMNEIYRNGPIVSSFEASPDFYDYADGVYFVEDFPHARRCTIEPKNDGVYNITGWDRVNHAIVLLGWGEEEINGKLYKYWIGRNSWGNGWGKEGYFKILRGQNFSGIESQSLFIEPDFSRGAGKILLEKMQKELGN
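Further: 30 min substrate incubation versus DMSO and 10 µM JCP410 controls.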

SMILES | % Inhibition @ 10 uM [%]
CC(=O)N1CC(c2ccc(OC(C)C)cc2)CC1=O (centres unmarked) | 1.96
O=C1OC(c2ccccc2)=N/C1=C\c1ccccc1C(F)(F)F | 0.997
O=S(=O)(c1cccc(S(=O)(=O)N2CCCCC2)c1)c1cccc(S(=O)(=O)N2CCCCC2)c1 | 0.937
CC1=C(C(=O)OCCOc2ccccc2)C(c2ccccc2F)C2=C(O)CC(C)(C)CC2=N1 (centres unmarked) | 0.997
CCOC(=O)c1cc(NC(=O)N(C(C)C)C2CCCCC2)c(C)nc1C | 5.7
CC1=NN(C(=O)c2cc3nc(-c4ccccc4)cc(C(F)(F)F)n3n2)C(O)(C(F)(F)F)C1 (centres unmarked) | -4.89
CC(NC(=O)Cc1ccccc1)c1nc2ccccc2n1Cc1ccccc1 (centres unmarked) | 2.73
COCCN1C(=O)c2[nH]nc(-c3ccccc3O)c2C1c1cccc(OCCC(C)C)c1 (centres unmarked) | 8.13
COc1ccccc1-c1cc(=O)n(CC(=O)NC(C)c2cccc3c2OCCO3)c2c1CCCC2 (centres unmarked) | -6.68
COc1ccc(C)cc1C(=O)C1CC(C(=O)O)C(C)(C)C1C (centres unmarked) | 2.1
CCOc1ccccc1/N=C(C)/C=C(\O)c1cccnc1 | 3.19
C=COCCNC(=O)C(=O)NCc1ccccc1 | -1.56
CCOC(=O)c1cc2cc(OC)ccc2oc1=O | 3
CCCCOc1ccc(Nc2nc(C)cc(O)n2)cc1 | -3.27
COc1ccc(NC(=O)C(C(C)C)N2C(=O)c3ccccc3C2=O)cc1 (centres unmarked) | 8.19
CCC(C)NS(=O)(=O)c1ccc(OCC(=O)N2CCc3ccccc3C2)cc1 (centres unmarked) | -4.15
CN1CCN(CCCNC(=O)C2CCCN(c3nnc(-n4cccc4)s3)C2)CC1 (centres unmarked) | 2.76
C=CCn1c(C(C)NC(=O)c2ccc(Cl)cc2)nc2ccccc21 (centres unmarked) | 1.5
CCN(CC)C(=O)c1sc(NC(=O)c2ccccc2F)c(C#N)c1C | -0.941
CC(C)(Nc1ccc(Cl)cc1)c1nnnn1C(/C=C\c1ccc(Cl)cc1Cl)C(C)(C)C (centres unmarked) | -2.72
Cc1c(C(=O)N2CCCCCC2)nnn1-c1nonc1N | -5.51
CCCCc1ccc2ccccc2c1C(=O)O | -0.0372
Cc1ccsc1CN(C(=O)COc1ccc(C(C)(C)C)cc1)C1CCS(=O)(=O)C1 (centres unmarked) | -1.11
Cc1c(C(=O)C(=O)N2CCOCC2)c2ccccc2n1Cc1ccccc1 | -3.07
CCC(C)(C)C1CCc2c(sc(NC(=O)c3cccnc3Cl)c2C(N)=O)C1 (centres unmarked) | -3.83

SMILES | % Inhibition @ 10 uM [%]
CCCSc1ncc(Cl)c(C(=O)Nc2sc3c(c2C(=O)NCC2CCCO2)CCC3)n1 (centres unmarked) | 1.25
COc1ccc(-c2ccc3c(N)c(C(=O)Nc4ccc(F)cc4)sc3n2)cc1 | -6.17
O=C(CSc1nnnn1-c1ccccc1)NCCc1ccccc1 | -4.7
COc1cc(C2=N/C(=C/c3c(OC)ccc4ccccc34)C(=O)O2)cc(OC)c1OC | -6.18
O=[N+]([O-])c1ccc(CS(=O)(=O)Nc2cccc(C(F)(F)F)c2)cc1 | -1.59
Cn1c(=O)c2c(nc(CN3CCOCC3)n2CCCO)n(C)c1=O | -1.43
CN(C)CCN(C)Cc1cccs1 | 2.26
CCCCN(C)C(=O)Cn1cccc1C(=O)c1ccccc1 | -2.47
CN(C)c1cccc2c1C(=O)c1ccccc1C2=O | 0.912
O=C1/C(=C\c2ccco2)CC2CC1C/C(=C/c1ccco1)C2=O | 1.84
Cc1nc2nc(N3C(=O)CCC3=O)nn2c(C)c1Cl | -1.31
Cc1ccc2nc(-c3ccc(N)cc3O)oc2c1 | 3
CCOC(=O)N1CCN(S(=O)(=O)N2CCCC(C(=O)NCCCN3CCCC3=O)C2)CC1 (centres unmarked) | 8.2
C=CCc1cc(/C=C2/SC(=O)N(CC)C2=O)cc(OCC)c1O | -1.95
CN(C)S(=O)(=O)c1ccc(-c2cs/c(=N\c3ccccc3)n2Cc2ccccc2)cc1 | -0.425
c1cc(CN2CCN(C3C4CC5CC(C4)CC3C5)CC2)ccn1 (centres unmarked) | -8.58
CCOC(=O)C1CCN(Cc2ccccc2C)CC1 | -3.65
C(=C\c1ccccc1)/CN1CCN(C2C3CC4CC(C3)CC2C4)CC1 (centres unmarked) | -3.35
O=C(Nc1nnc(Cc2ccc(Cl)cc2Cl)s1)c1cccs1 | 2.3
O=C(NCc1ccccc1)/C(=C\c1ccc(-c2ccc(Cl)cc2)o1)NC(=O)c1ccccc1 | 13.9
COc1cccc(CSc2nc3ccncc3n2Cc2ccc(F)cc2)c1 | -5.15
O=C(O)c1ccccc1C(=O)NCC(O)COc1ccc2ccccc2c1 (centres unmarked) | -1.52
CCN1CCCC1CNC(=O)C1=C(C)C(=O)OC12CCCCC2 (centres unmarked) | -5.58
O=C(CSc1nc2ccsc2c(=O)n1Cc1ccc2c(c1)OCO2)NCCCc1ccccc1 | -3.49
COc1ccc(OCC(O)CNC(C)(C)CC(C)(C)C)cc1 (centres unmarked) | -1.29
